According to PubChem BioAssay AID1347120 (National Center for Advancing Translational Sciences (NCATS), 2019):
Out of some 390,000 compounds screened, about 930 (0.24%) were called active. This list was built around the results that the source calls inconclusive (neither active nor inactive); the mix of calls is not that of the screen. Calls come from the whole dose curve; as a rule, active = well fitted activation curve with a large enough effect; inconclusive = small, poorly fitted or top-dose-only effect; inactive = no such curve, though single readings can be large or run the other way. A potency beside an inconclusive call is a rough fit, not a confirmed value.

test: qHTS for Suppressors of FUS Proteinopathy: Primary screen using FUS-linked yeast assay; note: nearly all actives have a fitted effect of over 55% in size;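 for growth rescue (activation): plate controls were DMSO vehicle for no effect and reference control for full effect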; details: S. cerevisiae FUS-expressing, OD600, 24 h; Potency: growth rescue; growth rescue (activation): at 76.6 µM (top of the series)
Summary of the method: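 Cultures pregrown in 2.5% raffinose medium are shifted to minimal medium containing 2% galactose to express toxic FUS. Compounds are tested at several concentrations. After 24hr at 30C, growth is quantified at 600 nm absorbance.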
Potency is the fitted concentration of half-maximal effect; tags give direction and shape of the fitted curve.

| Compound | Potency | growth rescue (activation) |
| --- | --- | --- |
| COc1ccc(OC)c(C(=O)CC2(O)C(=O)N(Cc3ccccc3C)c3ccccc32)c1 (stereo unspecified) | inconclusive: 31.6 µM [activator, single point] |  |
| COc1ccccc1CNC(=O)Cn1c(=O)nc(-c2ccccc2F)c2cc(Cl)ccc21 | inactive |  |
| CC(C)c1ccc(NC(=O)Cn2c(=O)n(CC3CCC(C(=O)NCCc4ccccc4)CC3)c(=O)c3ccccc32)cc1 (stereo unspecified) | inactive |  |
| Cc1c(C(=O)N2CCOCC2)oc2c1-c1nn(CC(=O)NCc3cccc(F)c3)cc1CC2 | inconclusive: 50.1 µM [activator, single point] |  |
| CCSc1nnc(NC(=O)[C@@H](NC(=O)c2ccc(C(C)(C)C)cc2)C(C)C)s1 | inconclusive: 11.2 µM [activator, partial curve, poor fit] |  |
| CCc1ccc2nc(N(CCN(C)C)C(=O)c3ccc4ncsc4c3)sc2c1 | inactive |  |
| CC(C)CNc1ncnc2onc(-c3ccc(Cl)cc3)c12 | inactive |  |
| CCOC(=O)c1ccc(NC(=O)c2oc3c(c2C)-c2nn(Cc4ccccc4Cl)cc2CC3)cc1 | inconclusive: 31.6 µM [activator, single point] |  |
| C=CC[C@H](CC(=O)N(CCO)Cc1ccccc1)C(=O)N[C@@H](COC(=O)[C@@H](CC=C)CC(=O)OC(C)(C)C)Cc1c[nH]c2ccccc12 | inconclusive: 15.8 µM [activator, partial curve] |  |
| COc1ccc(-c2nnc(SCC(=O)Nc3c(C)cccc3C)nc2-c2ccc(OC)cc2)cc1 | inconclusive: 28.2 µM [activator, partial curve, poor fit] |  |
| O=C(Cn1c[n+](CC(=O)c2ccc([N+](=O)[O-])cc2)cn1)c1ccc([N+](=O)[O-])cc1 | inconclusive: 17.8 µM [activator, partial curve, poor fit] |  |
| O=S(=O)(c1cc(Br)ccc1Br)N1CCCCCC1 | inactive |  |
| O=C(O)c1cc(NC(=O)C2CCCO2)cc(NC(=O)C2CCCO2)c1 (stereo unspecified) |  | inconclusive: 54.2% [activator] |
| CC(C)NC(=O)N[C@@H]1C[C@@H]2O[C@@H](CO)CC[C@@H]2O[C@@H]1CCc1ccc(-c2ccc(F)cc2)cc1 | inconclusive: 22.4 µM [activator, single point] |  |
| Brc1ccc2c(c1)C(c1ccc(N3CCOCC3)cc1)=NNC(c1cccs1)=N2 | inconclusive: 35.5 µM [activator, single point] |  |
| O=C(Nc1ccc(-c2nc3cccnc3s2)cc1)c1cccnc1Cl | inactive |  |
| O=C(/C=C/c1cccs1)NC(=S)NNC(=O)c1ccccc1O | inactive |  |
| CCN1C(=O)[C@@H]2[C@@H](c3ccc(-c4ccc(OC)cc4)c(OC)c3)N3CCCC[C@@]3(C(=O)OC)[C@@H]2C1=O | inactive |  |
| Cn1c(=O)c2c(nc(NCCc3ccccc3)n2Cc2ccc(F)cc2)n(C)c1=O | inactive |  |
| CC1(C)CC2(CCCN(C(=S)Nc3ccccc3)C2)CCO1 (stereo unspecified) | inactive |  |
| CCCCc1ccc(NC(=O)CSc2nc(=O)[nH]c3c2CCCC3)cc1 | inactive |  |
| COc1ccc(CCNc2oc(Cc3cccc4ccccc34)nc2C#N)cc1OC | inconclusive: 5.01 µM [activator, full curve] |  |

| Compound | Potency | growth rescue (activation) |
| --- | --- | --- |
| CC1=C(c2ccc(C)c(C)c2)S(=O)(=O)N(Cc2ccc(C(=O)Nc3cc(F)ccc3F)cc2)C1=O | inactive |  |
| Cc1c(CC(=O)N2CCN(C(=O)C3COc4ccccc4O3)CC2)c(=O)oc2cc(O)cc(O)c12 (stereo unspecified) | active: 17.8 µM |  |
| CCOc1ccc(-n2cc(-c3ccccc3)c3c(NC4CCCC4)ncnc32)cc1 | inactive |  |
| CSc1ccc(/C=C(\NC(=O)c2ccccc2)C(=O)NN)cc1 | inconclusive: 28.2 µM [activator, partial curve] |  |
| CCCCNC(=O)c1ccc2c(c1)N=C(CC)c1ccccc1S2 | inconclusive: 25.1 µM [activator, partial curve] |  |
| COc1ccc(CC(=O)N(C)CC(=O)Nc2ccccc2SC)cc1 | inactive |  |
| Cc1ccc(N2CC(NC(=O)c3cccs3)CC2=O)cc1 (stereo unspecified) | inactive |  |
| CC1(c2nnnn2-c2ccc3ccccc3c2)CSCC(=O)N1C1CC1 (stereo unspecified) | inactive |  |
| N#Cc1cn(CCCOc2ccccc2)c2ccccc12 | inactive |  |
| Cc1ccc2c(=O)cc(CSc3ncn[nH]3)[nH]c2c1C | inactive |  |
| CCn1cc(C(=O)N2CCN(c3cccc(Cl)c3)CC2)c(=O)c2cc(S(=O)(=O)N3CCC(C)CC3)ccc21 | inconclusive: 14.1 µM [activator, single point] |  |
| C=Cc1ccc(Cn2c(C)c(CNCCc3ccc(OCC)cc3)c(C(=O)O)c2C)cc1 | inactive |  |
| Cc1ccccc1CN1C(=O)c2ccccc2Sc2ccc(C(=O)NCCc3ccccc3)cc21 | inconclusive: 15.8 µM [activator, partial curve] |  |
| C[C@@H]1CN([C@@H](C)CO)C(=O)c2cccc(NC(=O)C3CCCCC3)c2O[C@@H]1CN(C)C(=O)NC1CCCCC1 | inconclusive: 22.4 µM [activator, partial curve, poor fit] |  |
| O=C(O)CCCC(=O)Nc1nc2n(n1)C(c1ccc(F)cc1)CC(c1ccc(Cl)cc1)N2 (stereo unspecified) | inconclusive: 28.2 µM [activator, partial curve, poor fit] |  |
| COc1ccc(-c2ccc(NS(=O)(=O)c3cc(C)c(C)cc3C)cc2)nn1 | inconclusive: 35.5 µM [activator, single point] |  |
| O=C(Nc1c(-c2ccccc2)[nH][nH]c1=O)c1ccc2c(c1)OCO2 | inactive |  |
| Cc1ccc(OCc2nnc(SCC(=O)Nc3ncc(C)s3)o2)cc1 | inconclusive: 50.1 µM [activator, single point] |  |
| Cc1ccc(CNC(=O)c2ccc(N3CCC4(CC3)CC(c3ccccc3)=NO4)c(NC(=O)c3ccc(Cl)c([N+](=O)[O-])c3)c2)cc1 | inconclusive: 11.2 µM [activator, partial curve, poor fit] |  |
| Cc1cc(C)cc(OCCSc2nc3ccc(NC(=O)COc4ccccc4)cc3s2)c1 | inactive |  |
| Cc1cc(C)c(-c2cc(NC(=O)COC(=O)c3ccc(C#N)cc3)n(-c3ccccc3)n2)cc1C | inconclusive: 7.94 µM [activator, partial curve] |  |
| COc1cc2c(cc1NC(=O)c1cccnc1)oc1ccccc12 | inconclusive: 28.2 µM [activator, partial curve, poor fit] |  |

| Compound | Potency | growth rescue (activation) |
| --- | --- | --- |
| CC(=O)c1cc(CC=C(C)C)c(O)cc1O | inconclusive: 50.1 µM [activator, partial curve, poor fit] |  |
| CN1CCN(Cc2nc3ccccc3c(=O)n2Cc2nc(-c3cccc([N+](=O)[O-])c3)cs2)CC1 | inconclusive: 50.1 µM [activator, single point] |  |
| Cc1ccc([N+](=O)[O-])cc1N(CC(=O)Nc1ccc(S(=O)(=O)Nc2cccc(C(F)(F)F)c2)cc1)S(C)(=O)=O | inconclusive: 15.8 µM [activator, partial curve] |  |
| Cc1cn(C)c(CC(=O)Nc2ccc(F)cc2Cl)c1C(=O)O | inconclusive: 22.4 µM [activator, partial curve, poor fit] |  |
| O=C(COC(=O)Cc1cccs1)Nc1cccc(S(=O)(=O)N2CCOCC2)c1 | inconclusive: 31.6 µM [activator, single point] |  |
| CCOc1ccc(C2c3c(oc4ccc(C)cc4c3=O)C(=O)N2CCCN(C)C)cc1OC (stereo unspecified) | inconclusive: 35.5 µM [activator, single point] |  |
| Cc1cc(C(=O)CSc2nnc(-c3ccccc3)n2-c2ccccc2)c(C)n1-c1ncn[nH]1 | inconclusive: 35.5 µM [activator, single point] |  |
| COc1ccc(-c2nnc(SC(C)C(=O)O)o2)cc1 (stereo unspecified) | inactive |  |
| CSc1ccc(-c2nc3cccc(C)n3c2Nc2ccc3c(c2)OCO3)cc1 | inconclusive: 31.6 µM [activator, single point] |  |
| COc1ccc(-c2nnc(NC(=O)c3ccc(S(=O)(=O)N4CCCc5ccccc54)cc3)o2)cc1 | inactive |  |
| Cc1[nH]c2ccccc2c1C1(O)C(=O)N(Cc2ccccc2)c2ccc(Cl)cc21 (stereo unspecified) | inactive |  |
| CC(=O)c1cccc(NC(=O)C2CCCN(S(=O)(=O)c3cccc4cccnc34)C2)c1 (stereo unspecified) | inactive |  |
| Cc1ccc(OCC(=O)Nc2c(C(=O)c3ccc(Cl)cc3)oc3ccccc23)cc1C | inactive |  |
| CCc1ccccc1-n1cnc2cc(C(=O)NC3CCCCCC3)ccc21 | inconclusive: 39.8 µM [activator, single point] |  |
| Cc1ccc(S(=O)(=O)Nc2ccc(-c3ccc4nncn4n3)cc2)cc1 | inconclusive: 44.7 µM [activator, single point] |  |
| N#C/C(=C/c1ccc(N2CCCCCC2)o1)c1cccc(F)c1 | inconclusive: 14.1 µM [activator, partial curve] |  |
| O=C(O)c1ccc(NS(=O)(=O)c2ccc3c(c2)C2C=CCC2C(c2ccccc2F)N3)cc1 (stereo unspecified) | inconclusive: 28.2 µM [activator, single point] |  |
| CC(C)c1ccc(CNC(=O)c2ccc(N3CCCC3)c(NC(=O)NCc3ccccc3)c2)cc1 | inconclusive: 44.7 µM [activator, single point] |  |
| Cc1ccc(S(=O)(=O)NCCC(=O)OCC(=O)N(Cc2ccccc2)C(C)(C)C)cc1C | inconclusive: 17.8 µM [activator, partial curve] |  |
| COc1ccccc1N1CCN(S(=O)(=O)c2ccc(F)c(C(=O)Nc3ccc(Cl)cc3C(F)(F)F)c2)CC1 | inconclusive: 31.6 µM [activator, single point] |  |
| CC(C)c1ccccc1NC(=O)C(Cc1c[nH]c2ccccc12)NC(=O)OC(C)(C)C (stereo unspecified) | inactive |  |
| COc1ccc([C@@]23CCN=C2c2[nH]c4ccccc4c2CCN3)c(N)c1 | inactive |  |
